From the supplement of paper PMC4604168 (melanoma cell lines)
Some of the results follow. Many values rest on one well or one pass, so single values are uncertain.

Experiments:
Experiment in all cases: cell count relative to DMSO control; melanoma cells; higher = more viable cells
Settings in all cases: library dose: low library concentration; 72 h
COLO792 = tested on: COLO792
COLO800 = tested on: COLO800
COLO829 = tested on: COLO829
G361 = tested on: G361
IPC-298 = tested on: IPC-298
IST-MEL1 = tested on: IST-MEL1
LB2518-MEL = tested on: LB2518-MEL
LOXIMVI = tested on: LOXIMVI
MEL-HO = tested on: MEL-HO
MZ2-MEL = tested on: MZ2-MEL
MeWo = tested on: MeWo
RPMI7951 = tested on: RPMI7951
RVH-421 = tested on: RVH-421
SkMel28 = tested on: SkMel28
SkMel30 = tested on: SkMel30
SkMel5 = tested on: SkMel5
UACC257 = tested on: UACC257
UACC62 = tested on: UACC62
SkMel2 = tested on: SkMel2
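Also: cell number obtained by counting DAPI-stained nuclei in high-throughput microscope images with image analysis software, screen run in 1,536-well plates.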

Row | SMILES | cell count (COLO792) [%] | cell count (COLO800) [%] | cell count (COLO829) [%] | cell count (G361) [%] | cell count (IPC-298) [%] | cell count (IST-MEL1) [%] | cell count (LB2518-MEL) [%] | cell count (LOXIMVI) [%] | cell count (MEL-HO) [%] | cell count (MZ2-MEL) [%] | cell count (MeWo) [%] | cell count (RPMI7951) [%] | cell count (RVH-421) [%] | cell count (SkMel28) [%] | cell count (SkMel30) [%] | cell count (SkMel5) [%] | cell count (UACC257) [%] | cell count (UACC62) [%] | cell count (SkMel2) [%]
1 | C[C@]12O[C@H](C[C@]1(O)CO)n1c3ccccc3c3c4c(c5c6ccccc6n2c5c31)CNC4=O [Lestaurtinib] + Cn1cncc1[C@@](N)(c1ccc(Cl)cc1)c1ccc2c(c1)c(-c1cccc(Cl)c1)cc(=O)n2C [tipifarnib] (first compound 0.004 µM, partner dose 0.01 µM) | 96.7 | 85.8 | 90.3 | 92.7 | 93.6 | 97 | 77.1 | 68.2 | 96.6 | 93.2 | 87.9 | 98.1 | 86.5 | 82.5 | 87.3 | 105 | 64.9 | 71 | 
2 | N.N.[Cl][Pt][Cl] [cisplatin] + O=C(Nc1ccccc1)c1cc([N+](=O)[O-])ccc1Cl [GW9662] (first compound 1.6 µM, partner dose 2 µM) | 101 | 119 | 94.7 | 90.5 | 102 | 104 | 94.4 | 93.1 | 84.4 | 96.4 | 89.6 | 92.8 | 70.6 | 92.3 | 91.9 | 84 | 113 | 100 | 96
3 | Cn1cc(C2=C(c3cn(C4CCN(Cc5ccccn5)CC4)c4ccccc34)C(=O)NC2=O)c2ccccc21 [Enzastaurin] + COC(=O)c1sccc1S(=O)(=O)Nc1ccc(Nc2ccccc2)cc1OC [GSK0660] (first compound 0.8 µM, partner dose 1 µM) | 88 | 86.3 | 139 | 98.2 | 114 | 110 | 89.1 | 75.9 | 99.6 | 94.2 | 117 | 92.6 | 94.2 | 99.2 | 103 | 95.7 | 85.8 | 102 | 105
4 | C[C@]12O[C@H](C[C@]1(O)CO)n1c3ccccc3c3c4c(c5c6ccccc6n2c5c31)CNC4=O [Lestaurtinib] + O=C(Nc1ccccc1)c1cc([N+](=O)[O-])ccc1Cl [GW9662] (first compound 0.004 µM, partner dose 2 µM) | 108 | 62.9 | 100 | 94.1 | 96 | 101 | 89.6 | 86.2 | 97.7 | 98.1 | 84.8 | 107 | 109 | 92.4 | 110 | 99.3 | 86.6 | 99.4 | 
5 | N.N.[Cl][Pt][Cl] [cisplatin] + Cn1cc(/C=C2\C(=O)Nc3cccnc32)c2ccccc21 [GW441756] (first compound 1.6 µM, partner dose 0.4 µM) | 100 | 87.2 | 77.9 | 110 | 99.5 | 92.3 | 50.9 | 81.3 | 91.6 | 91.9 | 78.7 | 93 | 97.6 | 88.5 | 95.7 | 82.6 | 94 | 74.9 | 97.8
6 | Cn1cc(C2=C(c3cn(C4CCN(Cc5ccccn5)CC4)c4ccccc34)C(=O)NC2=O)c2ccccc21 [Enzastaurin] + NC(=O)Nc1cc(-c2cccc(F)c2)sc1C(=O)N[C@H]1CCCNC1 [AZD7762] (first compound 0.8 µM, partner dose 0.02 µM) | 98.3 | 74.1 | 81.8 | 104 | 107 | 102 | 108 | 70.6 | 107 | 94.6 | 102 | 82.1 | 108 | 103 | 119 | 111 | 132 | 97.7 | 113
7 | Cn1cc(C2=C(c3cn(C4CCN(Cc5ccccn5)CC4)c4ccccc34)C(=O)NC2=O)c2ccccc21 [Enzastaurin] + O=C1NC(=O)/C(=C/c2ccc(-c3ccc(F)cc3O)o2)S1 [AS252424] (first compound 0.8 µM, partner dose 1 µM) | 88.1 | 105 | 107 | 97.3 | 103 | 104 | 98 | 51.8 | 91 | 94.3 | 105 | 107 | 83.4 | 97.9 | 94.1 | 101 | 93.8 | 92.6 | 96.7
8 | C[As](C)SC[C@H](NC(=O)CC[C@H](N)C(=O)O)C(=O)NCC(=O)O [Darinaparsin] + O=C(CCCCCCC(=O)Nc1ccccc1)NO [vorinostat] (first compound 0.4 µM, partner dose 0.08 µM) | 106 | 80 | 93.2 | 109 | 108 | 92.9 | 98.5 | 90.8 | 100 | 122 | 100 | 109 | 98.4 | 97 | 121 | 103 | 93.5 | 91 | 103
9 | C[As](C)SC[C@H](NC(=O)CC[C@H](N)C(=O)O)C(=O)NCC(=O)O [Darinaparsin] + O=C(Nc1cccc(Cl)c1)Nc1ncc(CCNc2ncnc3ccsc23)s1 [SNS314] (first compound 0.4 µM, partner dose 0.0008 µM) | 105 | 121 | 98.4 | 103 | 95.9 | 96.3 | 81.2 | 156 | 96 | 107 | 95.1 | 94.9 | 95.3 | 86 | 73.6 | 97.9 | 74.6 | 90.4 | 93.2
10 | Cn1cc(C2=C(c3cn(C4CCN(Cc5ccccn5)CC4)c4ccccc34)C(=O)NC2=O)c2ccccc21 [Enzastaurin] + O=S(=O)(c1ccccc1)N(CC(F)(F)F)c1ccc(C(O)(C(F)(F)F)C(F)(F)F)cc1 [T0901317] (first compound 0.8 µM, partner dose 1.4 µM) | 105 | 169 | 94.7 | 73.1 | 93.9 | 105 | 97.1 | 66.7 | 104 | 89.1 | 105 | 96.2 | 88.1 | 93.8 | 92.5 | 82.2 | 93.2 | 83.2 | 97.2
11 | C[As](C)SC[C@H](NC(=O)CC[C@H](N)C(=O)O)C(=O)NCC(=O)O [Darinaparsin] + OCCn1cc(-c2cnc3nnn(Cc4ccc5ncccc5c4)c3n2)cn1 [PF04217903] (first compound 0.4 µM, partner dose 1 µM) | 99.2 | 99.6 | 107 | 108 | 101 | 101 | 93.6 | 111 | 106 | 105 | 91.7 | 104 | 78.6 | 80.9 | 129 | 97 | 81.8 | 79.7 | 102
12 | Cn1cc(C2=C(c3cn(C4CCN(Cc5ccccn5)CC4)c4ccccc34)C(=O)NC2=O)c2ccccc21 [Enzastaurin] + COc1ccc(COc2ccc(Cc3cnc(N)nc3N)cc2OC)cc1 [GW2580] (first compound 0.8 µM, partner dose 1 µM) | 91.7 | 83.8 | 119 | 95 | 108 | 103 | 99.9 | 110 | 103 | 96.9 | 129 | 85.6 | 74.8 | 118 | 101 | 92.6 | 105 | 109 | 99.4
13 | C[C@]12O[C@H](C[C@]1(O)CO)n1c3ccccc3c3c4c(c5c6ccccc6n2c5c31)CNC4=O [Lestaurtinib] + CC(C)CCN1c2nc(Nc3cc(F)c(O)c(F)c3)ncc2N(C)C(=O)C1C [BID1870] (first compound 0.004 µM, partner dose 0.2 µM) | 84 | 93.1 | 126 | 110 | 85.4 | 101 | 93.7 | 143 | 87.8 | 105 | 76.5 | 106 | 115 | 91.1 | 77.9 | 95.3 | 70.1 | 95.1 | 
14 | C[C@]12O[C@H](C[C@]1(O)CO)n1c3ccccc3c3c4c(c5c6ccccc6n2c5c31)CNC4=O [Lestaurtinib] + CC1(C)NC(=O)N(c2ccc([N+](=O)[O-])c(C(F)(F)F)c2)C1=O [nilutamide] (first compound 0.004 µM, partner dose 1 µM) | 91.5 | 94.3 | 122 | 95 | 94.8 | 108 | 88.6 | 93.7 | 91.7 | 108 | 91.2 | 109 | 100 | 115 | 85.2 | 118 | 99.1 | 88.1 | 
15 | Cn1cc(C2=C(c3cn(C4CCN(Cc5ccccn5)CC4)c4ccccc34)C(=O)NC2=O)c2ccccc21 [Enzastaurin] + COc1cc(Nc2ncc(F)c(Nc3ccc4c(n3)NC(=O)C(C)(C)O4)n2)cc(OC)c1OC [Tamatinib] (first compound 0.8 µM, partner dose 0.4 µM) | 56.1 | 119 | 94.9 | 89 | 77.4 | 90.7 | 77 | 66.6 | 96.5 | 97.1 | 88.3 | 51.9 | 93.9 | 91 | 91.1 | 87.5 | 55.3 | 66.5 | 97.5
16 | N.N.[Cl][Pt][Cl] [cisplatin] + CC(C)(C)c1cnc(CSc2cnc(NC(=O)C3CCNCC3)s2)o1 [SNS-032] (first compound 1.6 µM, partner dose 0.01 µM) | 99.4 | 113 | 112 | 99 | 102 | 102 | 103 | 66.6 | 97.9 | 111 | 98.6 | 120 | 93.6 | 89.2 | 104 | 100 | 93.7 | 96 | 93.1
17 | N.N.[Cl][Pt][Cl] [cisplatin] + NC(=O)Nc1cc(-c2cccc(F)c2)sc1C(=O)N[C@H]1CCCNC1 [AZD7762] (first compound 1.6 µM, partner dose 0.02 µM) | 99.6 | 67 | 99 | 102 | 99.9 | 97.6 | 126 | 113 | 93.6 | 108 | 99.8 | 94.3 | 115 | 104 | 110 | 111 | 120 | 85.5 | 111
18 | N.N.[Cl][Pt][Cl] [cisplatin] + Oc1nc(-c2ccc(C(F)(F)F)cc2)nc2c1CSCC2 [XAV939] (first compound 1.6 µM, partner dose 2 µM) | 85.1 | 96.4 | 92.5 | 97.4 | 96 | 93.9 | 92.9 | 104 | 102 | 93.3 | 107 | 95.9 | 80.4 | 92.5 | 95.2 | 89.6 | 83.3 | 91.2 | 100
